Results taken from patent US9604925B2, “Class II HMG-CoA reductase inhibitors and methods of use” (Purdue Research Foundation, priority 2012, dated 2017).

Test system: vancomycin resistant S. aureus (VRSA) NARSA Strain ID VRS10
Test: MIC micro dilution against VRSA
Conditions: Staphylococcus aureus, read-out: VRSA MIC (μM)

| Compound | MIC |
| --- | --- |
| CCCCCCCc1ccc(NS(=O)(=O)c2ccc(O)c(C(=O)O)c2)cc1 [Compound 2e, 5-[N-(4-heptylphenyl)sulfamoyl]-2-hydroxybenzoic acid] | 64 µM (≈ 25.1 µg/mL) |
| O=C(O)c1cc(S(=O)(=O)Nc2ccc(CCC3CCCCC3)cc2)ccc1O [Compound 2l, 5-[N-(4-(2-cyclohexylethyl)phenyl)sulfamoyl]-2-hydroxybenzoic acid] | 32 µM (≈ 12.9 µg/mL) |
| CCCCCCCCCCc1ccc(NS(=O)(=O)c2ccc(O)c(C(=O)O)c2)cc1 [Compound 2f, 5-[N-(4-decylphenyl)sulfamoyl]-2-hydroxybenzoic acid] | 16 µM (≈ 6.94 µg/mL) |
| CC(C)CCCCc1ccc(NS(=O)(=O)c2ccc(O)c(C(=O)O)c2)cc1 [Compound 2j, 2-hydroxy-5-[N-(4-(5-methylhexyl)phenyl)sulfamoyl]benzoic acid] | 32 µM (≈ 12.5 µg/mL) |

Values after ≈ are worked out from the molar mass of the structure shown.
